According to the supplement of paper PMC8792480:
Structures can show the parent of a compound that is named as a salt. The list shows a part of the results. Repeats are few or missing, and single values can be far off.

tested on: A549; test: cell-surface PD-L1 MFI ratio relative to cisplatin alone (isotype-subtracted); higher = higher PD-L1 surface expression; conditions: inducer: cisplatin 4 uM; 10 µM; 24 h
Experimental: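 A549 and H460 NSCLC cells were treated with each library drug at 10 uM, then with radiation (8 Gy) or cisplatin (4 uM), and incubated for 24 h. Cell-surface PD-L1 was measured by flow cytometry as an MFI ratio: (MFI drug+inducer - MFI isotype)/(MFI inducer alone - MFI isotype). Hits were defined as ratio < 0.75.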

Structure (SMILES)	cell-surface PD-L1 MFI ratio
COc1ccc(-c2nc(-c3cc(C(F)(F)F)cc(C(F)(F)F)c3)n(Cc3ccc(C(N)=O)cc3)c2-c2ccc(OC)cc2)cc1 [Apoptozole]	active: 0.348
CC(C)[C@H]1C(=O)N[C@@H](CCCNC(=N)N)C(=O)NCC(=O)N[C@@H](CC(=O)O)C(=O)N[C@H](Cc2ccccc2)C(=O)N1C [Cilengitide trifluoroacetate]	active: 0.455
Cc1nc(Nc2ncc(C(=O)Nc3c(C)cccc3Cl)s2)cc(N2CCN(CCO)CC2)n1 [Dasatinib]	inactive: 0.948
Cc1cc(Nc2cc(N3CCN(C)CC3)nc(Sc3ccc(NC(=O)C4CC4)cc3)n2)n[nH]1 [Tozasertib (VX-680, MK-0457)]	inactive: 0.862
O=C(Nc1cccc2cccnc12)c1ccc(N2C(=O)[C@@H]3[C@H](C2=O)[C@@H]2C=C[C@H]3C2)cc1 [IWR-1-endo]	active: 0.718
NC1(c2ccc(-c3nc4ccn5c(=O)[nH]nc5c4cc3-c3ccccc3)cc2)CCC1	inactive: 0.923
CN1CCN(CCOc2cc(OC3CCOCC3)c3c(Nc4c(Cl)ccc5c4OCO5)ncnc3c2)CC1 [Saracatinib (AZD0530)]	active: 0.562
Nc1ccc2ncnc(NCCc3ccc(Oc4ccccc4)cc3)c2c1	active: 0.739
O=S(=O)(c1cccc2cnccc12)N1CCCNCC1 [Fasudil (HA-1077) HCl]	active: 0.679
CS(=O)(=O)CCNCc1ccc(-c2ccc3ncnc(Nc4ccc(OCc5cccc(F)c5)c(Cl)c4)c3c2)o1	inactive: 0.909
CNc1nc(-c2ccc3c(N)n[nH]c3c2)cc(N2C[C@@H](C(=O)NC3CCCCC3)CC[C@H]2C)n1	inactive: 1.07
O=C(c1cc(Cc2n[nH]c(=O)c3ccccc23)ccc1F)N1CCN(C(=O)C2CC2)CC1 [Olaparib]	active: 0.542
O=C(Nc1cc(C(F)(F)F)ccc1N1CCCCC1)c1ccncc1	active: 0.65
C[C@@H](Oc1cc(-c2cnn(C3CCNCC3)c2)cnc1N)c1c(Cl)ccc(F)c1Cl	inactive: 1.43
Cc1[nH]c2ccccc2c1CCNCc1ccc(/C=C/C(=O)NO)cc1 [Panobinostat]	inactive: 2.17
CN(C)c1cccc(-c2c3c(=O)n(-c4ccccc4Cl)[nH]c3cc(=O)n2C)c1	inactive: 0.815
C=CCn1c(=O)c2cnc(Nc3ccc(N4CCN(C)CC4)cc3)nc2n1-c1cccc(C(C)(C)O)n1 [Adavosertib (MK-1775)]	inactive: 0.87
Cc1n[nH]c2ncc(C(=O)N3CCC[C@H]3c3ccc(Cl)cc3)cc12	active: 0.524
CC(C)(C)c1nc(-c2ccc(NC(=O)Nc3cccc(C(F)(F)F)c3)c3ccccc23)c2c(N)nccn12 [kira6]	inactive: 2.67
O=C(/C=C/N1C[C@H]2C[C@@H]1CN2c1ccccn1)c1ccccc1O	active: 0.38

Structure (SMILES)	cell-surface PD-L1 MFI ratio
CC(=O)c1c(C)c2cnc(Nc3ccc(N4CCNCC4)cn3)nc2n(C2CCCC2)c1=O	active: 0.714
C=CC(=O)N1CCC[C@@H](n2nc(-c3ccc(Oc4ccccc4)cc3)c3c(N)ncnc32)C1 [Ibrutinib]	inactive: 0.829
O=C1CCc2c(Oc3ccc4c(c3)[C@@H]3[C@H](O4)[C@H]3c3nc4cc(C(F)(F)F)ccc4[nH]3)ccnc2N1 [Lifirafenib (BGB-283)]	inactive: 1.12
CCCCCCCCCCCCCC(=S)NCCCC[C@H](NC(=O)OCc1ccccc1)C(=O)Nc1ccccc1 [Thiomyristoyl]	active: 0.423
COc1cc2c(Oc3ccc4[nH]c(C)cc4c3F)ccnc2cc1OCC1(N)CC1 [Anlotinib]	inactive: 0.973
CCOc1cc2ncc(C#N)c(Nc3ccc(OCc4ccccn4)c(Cl)c3)c2cc1NC(=O)/C=C/CN(C)C [Neratinib (HKI-272)]	inactive: 0.841
CC(C)CCN1c2nc(Nc3cc(F)c(O)c(F)c3)ncc2N(C)C(=O)C1C (stereo not given)	inactive: 20.1
CC(C)(C)Cn1c(N)nc2ccc(-c3[nH]c(C(C)(C)C)nc3-c3ccc(F)cc3)nc21	inactive: 1.06
O=C(N/N=C/c1ccc([N+](=O)[O-])o1)c1ccc(O)cc1 [Nifuroxazide]	inactive: 0.788
C[C@@H](Oc1ccc2[nH]nc(/C=C/c3cnn(CCO)c3)c2c1)c1c(Cl)cncc1Cl	inactive: 1.33
Cc1cccc(CC(=O)N2CCc3c2ccc(-c2cn(C)c4ncnc(N)c24)c3F)n1	active: 0.702
CC(C)(C)NC(=O)c1cncn1C1CCN(c2ccc(-c3nnc(C(F)(F)F)o3)cn2)CC1	active: 0.68
COc1cc2nccc(Oc3ccc(NC(=O)C4(C(=O)Nc5ccc(F)cc5)CC4)cc3)c2cc1OC [Cabozantinib]	inactive: 0.817
CC(C)Oc1ccc(C(=O)N[C@H](CNC(=O)CN(C)C)Cc2ccc(-c3cn4cccc([C@H](C)O)c4n3)cc2)cc1Cl	inactive: 0.888
CC1(C)C(=O)N(CCN2CCC(C(=O)c3ccc(F)cc3)CC2)c2ccccc21	inactive: 0.971
Cc1[nH]c(/C=C2\C(=O)Nc3ccccc32)c(C)c1CCC(=O)O [Orantinib (TSU-68, SU6668)]	inactive: 0.885
COc1ccc(S(=O)(=O)N(CCO)c2ccccc2CN(C)C/C=C/c2ccc(Cl)cc2)cc1 [KN-93 Phosphate]	inactive: 1.09
Cc1ccccc1C(=O)N1CCc2cc(-c3nc(NC(=O)Cc4ccc5c(c4)OCO5)sc3C)ccc21	inactive: 1.15
O=C([C@@H](Cc1cccc(C(F)(F)F)c1)NS(=O)(=O)c1cc(F)c2c(c1)CCNC2)N1CCCC1	active: 0.429
COc1cc2ncnc(Nc3ccc(F)c(Cl)c3)c2cc1OCCCN1CCOCC1 [Gefitinib]	inactive: 1
